Measurements published in the antibiotic and cytotoxicity screens of Wong et al. (2023).
Some of the results follow.

Key:
[1] = system: HSkMC (human skeletal muscle cells); experiment: cytotoxicity call (relative viability < 0.9); details: 10 µM
[2] = system: HepG2; experiment: cytotoxicity call (relative viability < 0.9); details: 10 µM
[3] = system: S. aureus RN4220; experiment: growth inhibition call (relative growth <= 0.2); details: 50 µM

O=C(N/N=C/[C@H](O)[C@@H](O)[C@H](O[C@@H]1O[C@H](CO)[C@H](O)[C@H](O)[C@H]1O)[C@H](O)CO)c1ccccn1
inactive: cytotoxicity call [1] | cytotoxicity call [2] | growth inhibition call [3]

Cc1ccc(S(=O)(=O)Nc2ccc3c(c2)C(=O)N([C@@H](C)CO)C[C@@H](C)[C@@H](CN(C)C(=O)NC2CCCCC2)OCCCC[C@H](C)O3)cc1
inactive: cytotoxicity call [1] | cytotoxicity call [2] | growth inhibition call [3]

C[C@H](CO)N1C[C@H](C)[C@H](CN(C)CC2CCCCC2)Oc2c(NC(=O)c3nc4ccccc4s3)cccc2C1=O
inactive: cytotoxicity call [1] | cytotoxicity call [2] | growth inhibition call [3]

C[C@H]1CN([C@@H](C)CO)S(=O)(=O)c2ccc(C#CC3(O)CCCC3)cc2O[C@H]1CN(C)C(=O)Cc1cccnc1
inactive: cytotoxicity call [1] | cytotoxicity call [2] | growth inhibition call [3]

CC(C)(C)[S@](=O)N1Cc2cc(C(=O)N[C@@H]3CCN(Cc4ccccc4)C3)nc(-c3cccc(-c4cccnc4)c3)c2[C@@H]1CCO
inactive: cytotoxicity call [1] | cytotoxicity call [2] | growth inhibition call [3]

CCc1nc2ccc(C(=O)Nc3cc(-c4ccccc4)ccc3OC)cn2c1N(C)Cc1ccc(OC)cc1
inactive: cytotoxicity call [1] | cytotoxicity call [2] | growth inhibition call [3]

COc1ccc2c(=O)ccoc2c1
inactive: cytotoxicity call [1] | cytotoxicity call [2] | growth inhibition call [3]

C[C@@H]1CCCCO[C@H](CN(C)C(=O)CCC(F)(F)F)[C@@H](C)CN([C@@H](C)CO)C(=O)c2cc(NS(=O)(=O)c3ccc(F)cc3)ccc2O1
inactive: cytotoxicity call [1] | cytotoxicity call [2] | growth inhibition call [3]

Cc1noc(C)c1NC(=O)N(C)C[C@H]1Oc2c(NC(=O)C3CCOCC3)cccc2C(=O)N([C@H](C)CO)C[C@@H]1C
inactive: cytotoxicity call [1] | cytotoxicity call [2] | growth inhibition call [3]

C[C@@H]1CN([C@H](C)CO)C(=O)c2cc(NC(=O)c3ccncc3)ccc2O[C@H]1CN(C)Cc1ccc(Oc2ccccc2)cc1
inactive: cytotoxicity call [1] | cytotoxicity call [2] | growth inhibition call [3]

COc1ccccc1C#Cc1cnc2c(c1)C(=O)N([C@H](C)CO)C[C@H](C)[C@@H](CN(C)C(=O)CN(C)C)O2
inactive: cytotoxicity call [1] | cytotoxicity call [2] | growth inhibition call [3]

O=C(C[C@@H]1CC[C@@H]2[C@H](COC[C@@H](O)CN2S(=O)(=O)c2ccccc2F)O1)NCc1ccccc1F
inactive: cytotoxicity call [1] | cytotoxicity call [2] | growth inhibition call [3]

CCN1C(=O)CO[C@H]2CN(C(=O)C3CCOCC3)C[C@@H]21
inactive: cytotoxicity call [1] | cytotoxicity call [2] | growth inhibition call [3]

O=C(N[C@@H]1CC[C@H](CC(=O)N2CCOCC2)O[C@@H]1CO)c1ccccn1
inactive: cytotoxicity call [1] | cytotoxicity call [2] | growth inhibition call [3]

CCCN1CCCc2cc(CCN)ccc21
inactive: cytotoxicity call [1] | cytotoxicity call [2] | growth inhibition call [3]
